Test results: the BET-seq Pho4 binding data (Le et al. 2018)
The list shows a part of the results. These are noisy estimates, calculated here from bound and input reads.

The sequences below were run against T1, Pho4 (S. cerevisiae) (UniProt P07270) (assay: relative binding free energy (BET-seq); higher = weaker binding). Conditions: reference: library average.
T1 sequence: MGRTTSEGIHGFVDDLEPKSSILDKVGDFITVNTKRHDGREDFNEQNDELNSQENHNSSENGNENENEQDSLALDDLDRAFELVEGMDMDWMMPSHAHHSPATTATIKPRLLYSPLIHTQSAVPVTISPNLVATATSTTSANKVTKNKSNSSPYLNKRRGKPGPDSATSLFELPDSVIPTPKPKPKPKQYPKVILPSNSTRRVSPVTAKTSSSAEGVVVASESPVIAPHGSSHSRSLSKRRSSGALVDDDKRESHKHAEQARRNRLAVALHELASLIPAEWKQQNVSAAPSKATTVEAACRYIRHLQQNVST

Sequence | relative binding free energy [kcal/mol]
GGAGGCACGTGGGGGT | -0.16
TAGTTCACGTGGCGGA | 0.21
GTTTCCACGTGTGTTG | 0.28
GGAATCACGTGTAGTA | 0.14
GGGTTCACGTGGGCGC | 0.16
TGATTCACGTGAATGG | 0.36
AAATTCACGTGGATTT | 0.28
AGTGTCACGTGATATT | 0.16
GGTTTCACGTGATAAA | 0.29
GGGATCACGTGAGTCT | 0.49
GCTAGCACGTGTGTAG | -0.05
TGCGGCACGTGGGCCT | -0.31
GGTGTCACGTGCTATT | 0.11
ATGGACACGTGTGGGG | 0.09
GCTTTCACGTGGAGGT | 0.24
GCGGTCACGTGAGGGG | 0.26
TGTGGCACGTGTGACT | 0.06
ATATTCACGTGCTTTG | 0.3
TTGGTCACGTGTGGAA | 0.24
TTTTCCACGTGAAGGT | 0.46
TATTACACGTGATCGT | 0.03
TGCGGCACGTGAAGTG | 0.09
GTTCTCACGTGCGTTT | 0.43
TTTTGCACGTGTATAC | -0.02
TTTTTCACGTGCAGGG | 0.29

Sequence | relative binding free energy [kcal/mol]
AGACTCACGTGGAGGT | 0.18
TGGTGCACGTGATGGC | 0.11
TGTGCCACGTGGACGT | 0.06
TGGTGCACGTGTTCTT | -0.04
TCATCCACGTGATTTG | 0.44
TGTGACACGTGGGTCT | -0.11
GGGTGCACGTGAGATG | 0.35
GGCTACACGTGTGTGT | 0.09
TTGGTCACGTGGCACG | -0.05
AATTTCACGTGGTGGG | 0.19
CGGTGCACGTGTGTAA | -0.08
GTTTGCACGTGTAAGT | 0.27
TTATTCACGTGAAGGT | 0.43
GGAGGCACGTGTGAGA | 0.04
AAAGGCACGTGAGGTA | 0.17
TTGGGCACGTGAGGGA | 0.12
TTACGCACGTGGGCGT | -0.26
TATATCACGTGTATGG | 0.05
ATGAACACGTGGAGTT | 0.02
TGACACACGTGGGAGT | -0.17
CGTTTCACGTGGTGCT | 0.11
GTGTACACGTGGTGTC | 0.06
ATATTCACGTGGTTAT | 0.11
GGTGTCACGTGTTCTT | 0.13
AAGACCACGTGGGGGG | -0.22

Sequence | relative binding free energy [kcal/mol]
AAAATCACGTGTGTTT | 0.1
ATTATCACGTGATTTA | 0.16
TTTGTCACGTGAGTAC | 0.18
GGGGTCACGTGGGGCC | 0.09
CTCGTCACGTGTGGGT | 0.02
ATCTGCACGTGTGGGA | 0.03
CAGTTCACGTGGGTTG | 0.14
GGAGGCACGTGTTGGA | -0.05
TGGATCACGTGGGATC | 0.15
TGGTACACGTGCATGT | 0.04
GGGAGCACGTGCGCGG | -0.25
TAGGCCACGTGTTTTT | -0.02
TTATGCACGTGCGCTG | -0.06
TTTGTCACGTGCTGTT | 0.1
TCAGTCACGTGCGTGT | -0.06
GAGTACACGTGCGTGA | 0.09
GGACACACGTGGCGGG | -0.08
ATTGTCACGTGGTGGC | 0.07
AACGGCACGTGGGGCG | -0.28
AGGCGCACGTGGTAGA | -0.24
TGTGACACGTGAGTTT | 0.09
TAGATCACGTGAATGG | 0.39
AAAGTCACGTGTGGCG | 0.09
TCGATCACGTGGGTTA | -0.05
GGGAGCACGTGTCAAG | 0.03

Sequence | relative binding free energy [kcal/mol]
ATCTACACGTGTGTGT | -0.04
CGAAACACGTGGGGTG | -0.23
AATAACACGTGTTATG | 0.02
TTTGCCACGTGGCAGG | -0.15
GTAAACACGTGTTGTG | -0.08
TAGGACACGTGGTTAA | 0.02
GGTAGCACGTGCAGAG | 0.01
GATTTCACGTGGAGGG | 0.34
GTTATCACGTGAAGGA | 0.37
CAGGGCACGTGTTCGT | -0.1
GGGATCACGTGCGAGG | 0.23
TTGCTCACGTGTGTAT | 0.22
CGGTTCACGTGCGTTA | 0.28
CAAGGCACGTGATGTG | 0.07
TCCTGCACGTGGTAGG | -0.08
GTTGGCACGTGTGGGT | 0.12
CTAGGCACGTGAGTTG | 0.21
TATTACACGTGAATTA | 0.38
CATTACACGTGTGGGA | 0.23
AGTTGCACGTGTGTAG | -0.08
TCGTTCACGTGAACTT | 0.47
TTGTACACGTGACGGT | 0.13
GGGGCCACGTGAGCTG | 0.06
TTTGGCACGTGAATAC | 0.19
GTTGTCACGTGATTAT | 0.22

Sequence | relative binding free energy [kcal/mol]
GATATCACGTGTATTT | 0.21
TGGGGCACGTGTCATG | -0.12
AGGGTCACGTGGTTTC | 0.05
TAGGGCACGTGATCTT | -0.04
TTAGTCACGTGTTTAT | 0.15
GTTGGCACGTGACATG | -0.1
TGTAACACGTGCTGGG | -0.02
TTCTACACGTGGAGTG | 0.05
CGTGCCACGTGTTTTA | 0.07
GATTGCACGTGCCGTG | 0.21
ATATACACGTGGTATT | -0.15
ATGCGCACGTGAAAGG | 0.17
GGGTTCACGTGCGAGT | 0.25
TACGACACGTGTTTGT | 0.09
GTATTCACGTGGAGCT | 0.17
TTTAACACGTGGTGTT | -0.24
GGTGTCACGTGAAGGG | 0.35
TACATCACGTGTTGGT | 0.09
GATTTCACGTGTTGTC | 0.3
TGTTTCACGTGTTATG | 0.29
AAATACACGTGGAGTG | -0.05
TTCGCCACGTGGGTTG | -0.22
TAGGACACGTGGATAT | 0.08
GTTTACACGTGACGGT | 0.31
AGGTTCACGTGAGGGA | 0.36

Sequence | relative binding free energy [kcal/mol]
TGACGCACGTGGGGGA | -0.27
ATGAGCACGTGTGGCG | 0.02
GATGGCACGTGACGTG | -0.02
ATTTGCACGTGTTTCT | 0.08
GGCCTCACGTGCGTGT | 0.17
TGTGTCACGTGTCTGC | -0.01
CGTACCACGTGGGGGG | -0.29
TGGGGCACGTGGTGTC | -0.17
GAATGCACGTGTAGGT | 0.02
AGTGGCACGTGGGCGC | -0.21
CTTGACACGTGTTCGT | -0.07
TTTTGCACGTGGTAGT | 0.01
GGGTCCACGTGATTTT | 0.15
TAGTGCACGTGGTTGT | -0.06
GGCCTCACGTGTAGGG | 0.04
TAATGCACGTGGTCTG | -0.15
TGTTACACGTGTTGCT | 0.05
TGTTGCACGTGGCCGA | -0.09
TCTAGCACGTGAGGTG | 0.1
GTTCGCACGTGGAAGG | 0.11
TCGTCCACGTGTGGTG | 0.09
